# Laboratory results reported in the supplement of paper PMC4604168 (melanoma cell lines).
# Some of the results follow. Many values rest on one well or one pass, so single values are uncertain.
# Assays:
# Assay in all cases: cell count relative to DMSO control; melanoma cells; higher = more viable cells
# Details in all cases: library dose: standard library concentration; 72 h
# [1] = tested on: IST-MEL1
# [2] = tested on: LB2518-MEL
# [3] = tested on: LOXIMVI
# [4] = tested on: MEL-HO
# [5] = tested on: MZ2-MEL
# [6] = tested on: MeWo
# [7] = tested on: RPMI7951
# [8] = tested on: RVH-421
# [9] = tested on: SkMel28
# [10] = tested on: SkMel2
# [11] = tested on: SkMel30
# [12] = tested on: SkMel5
# [13] = tested on: UACC257
# [14] = tested on: UACC62
# [15] = tested on: WM115
# [16] = tested on: WM1716
# [17] = tested on: WM1745
# [18] = tested on: WM3526
# [19] = tested on: WM3619
# [20] = tested on: WM451Lu
# 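Also: cells treated in 1,536-well plates, then fixed and DAPI-stained, with nuclei counted from automated high-throughput microscope images.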
Structure (SMILES),cell count [1] [%],cell count [2] [%],cell count [3] [%],cell count [4] [%],cell count [5] [%],cell count [6] [%],cell count [7] [%],cell count [8] [%],cell count [9] [%],cell count [10] [%],cell count [11] [%],cell count [12] [%],cell count [13] [%],cell count [14] [%],cell count [15] [%],cell count [16] [%],cell count [17] [%],cell count [18] [%],cell count [19] [%],cell count [20] [%]
"c1cc(-c2cnn3cc(-c4ccc(OCCN5CCCCC5)cc4)cnc23)ccn1 [Dorsomorphin] + CC(C)CCN1c2nc(Nc3cc(F)c(O)c(F)c3)ncc2N(C)C(=O)C1C [BID1870] (first compound 2 µM, partner dose 1 µM)",77.5,73,95,62.5,79.9,65.2,36.4,86.2,55.2,71.4,70.4,54.8,76,58.7,82.2,64.9,55.4,56.6,59.6,54
"COc1ccc(-c2ccc3c(N4CCOCC4)nc(N4C[C@@H](C)O[C@@H](C)C4)nc3n2)cc1CO + CC(C)CCN1c2nc(Nc3cc(F)c(O)c(F)c3)ncc2N(C)C(=O)C1C [BID1870] (first compound 0.1 µM, partner dose 1 µM)",81.3,84.2,262,65.2,87.1,75.1,91.7,87.7,68.1,85.6,78,66.1,66.8,87.9,80.6,53.8,93.7,63.8,72.2,78.5
"COc1ccc2c(c1)CCC1C2CCC2(C)C(NCCCCCCN3C(=O)C=CC3=O)CCC12 (stereo not given) + O=c1cc(-c2cccc3c2Sc2ccccc2S3)oc(N2CCOCC2)c1 [KU55933] (first compound 2 µM, partner dose 5 µM)",90.8,84.5,74.1,104,101,79,32.1,99.3,61.1,86.2,107,103,88.5,99.4,104,58.1,70.2,76.2,66.5,101
"COc1ccc2c(c1)CCC1C2CCC2(C)C(NCCCCCCN3C(=O)C=CC3=O)CCC12 (stereo not given) + COc1ccc(COc2ccc(Cc3cnc(N)nc3N)cc2OC)cc1 [GW2580] (first compound 2 µM, partner dose 5 µM)",104,111,69.4,89.3,96.5,74.2,36.5,99,105,108,76.2,85.5,84.9,91.5,76.2,87.7,62.7,79.3,106,91.5
"COc1ccc2c(c1)CCC1C2CCC2(C)C(NCCCCCCN3C(=O)C=CC3=O)CCC12 (stereo not given) + O=C1NC(=O)/C(=C/c2ccc(-c3ccc(F)cc3O)o2)S1 [AS252424] (first compound 2 µM, partner dose 5 µM)",94.7,79.4,72.9,73.4,79.9,57,35.1,76.3,101,87.2,88.8,68.3,91,54.5,85.8,79.9,75.6,87.2,61.1,90.6
"COc1ccc(COc2ccc(Cc3cnc(N)nc3N)cc2OC)cc1 + Oc1cc(-c2nc(-c3ccccc3)[nH]c2-c2ccncc2)ccc1Cl [L779450] (first compound 5 µM, partner dose 1 µM)",89.8,78.8,102,76,91.4,75.3,70.9,78.5,33.2,28.2,87.1,69.8,85.7,64.1,48.5,68.6,60.3,53.7,82.8,53.3
"N#Cc1c(O)c2c(-c3ccc(-c4ccccc4O)cc3)csc2[nH]c1=O + CCN(CC)CCCCNc1ncc2cc(-c3cc(OC)cc(OC)c3)c(NC(=O)NC(C)(C)C)nc2n1 [PD173074] (first compound 10 µM, partner dose 0.5 µM)",96.6,81.2,93.1,90.2,86.5,91.1,98.2,91.7,70.3,102,98.9,87,96.6,84.4,94.5,104,83.7,96.8,86.4,119
"O=S(=O)(c1ccccc1)N(CC(F)(F)F)c1ccc(C(O)(C(F)(F)F)C(F)(F)F)cc1 + O=c1cc(-c2cccc3c2Sc2ccccc2S3)oc(N2CCOCC2)c1 [KU55933] (first compound 7 µM, partner dose 5 µM)",91,114,101,78.2,81.5,89.6,107,101,58.8,71.3,81.4,93.4,93.7,94.6,87.1,108,125,77.3,116,113
"O=C(O)C(=O)Nc1sc2c(c1C(=O)O)CCNC2 + CC(C)CCN1c2nc(Nc3cc(F)c(O)c(F)c3)ncc2N(C)C(=O)C1C [BID1870] (first compound 8.33333 µM, partner dose 1 µM)",97.7,88.5,95.9,81.9,92.9,76.1,85.7,90.5,63.6,82.3,78.1,56.7,78,88.7,93.9,83.6,117,58.4,85.3,84.5
